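A five-concentration, 48-hour dose response in 96-well plates underlies each endpoint, interpolated linearly between surrounding concentrations. GI50 marks 50% less growth.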 Not every entry of the source has a single result; some have several. The list is limited to them. The source may hold further records. For some assays here: The tests behind the records often covered other concentration ranges, not given here; some values may only mark the edge of a range. Records carry a tag for their origin. A, B and so on number the origins entry by entry. For some assays here: The values listed for one entry are repeats across runs, samples, wells, individuals or studies.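 TGI: concentration producing complete growth inhibition.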
What was measured:
Assay in all cases: inhibition of tumour cell growth, NCI panel, 48 h
EKVX NSCLC = tested on: EKVX NSCLC
SNB-19 CNS = tested on: SNB-19 CNS
MDA-MB-435 = tested on: MDA-MB-435
UACC-257 melanoma = tested on: UACC-257 melanoma
KM12 colon = tested on: KM12 colon
DU-145 prostate = tested on: DU-145 prostate
OVCAR-8 ovarian = tested on: OVCAR-8 ovarian
A549 NSCLC = tested on: A549 NSCLC
SF-268 CNS = tested on: SF-268 CNS
SN12C renal = tested on: SN12C renal
MCF7 breast = tested on: MCF7 breast
HOP-62 NSCLC = tested on: HOP-62 NSCLC
NCI-H226 lung = tested on: NCI-H226 lung
HL-60(TB) leukemia = tested on: HL-60(TB) leukemia
SK-OV-3 ovarian = tested on: SK-OV-3 ovarian
NCI-H460 lung = tested on: NCI-H460 lung
MDA-MB-231 breast = tested on: MDA-MB-231 breast
HS 578T breast = tested on: HS 578T breast
CCRF-CEM leukemia = tested on: CCRF-CEM leukemia
LOX IMVI melanoma = tested on: LOX IMVI melanoma
RXF 393 renal = tested on: RXF 393 renal
T-47D breast = tested on: T-47D breast
SNB-75 CNS = tested on: SNB-75 CNS
ACHN renal = tested on: ACHN renal

With `CCC1(O)CC(OC2CC(N(C)C)C(OC3CC4OC5CC(=O)C(C)OC5OC4C(C)O3)C(C)O2)c2c(cc3c(c2O)C(=O)c2c(O)ccc(O)c2C3=O)C1C(=O)OC` (centres undefined) the GI50 (EKVX NSCLC) was < 0.1 nM, 32.3 nM [sample A, 1 test] and 12.9 nM [sample B, mean of 6 tests] and 12.5 nM [sample B, mean of 7 tests], the TGI (EKVX NSCLC) was 0.475 nM, 909 nM [sample A, 1 test] and 111 nM [sample B, mean of 2 tests] and 67 nM [sample B, mean of 6 tests] and 131 nM [sample B, mean of 7 tests] and the GI50 (SNB-19 CNS) was < 0.1 nM, 2.69 nM [sample A, 1 test] and < 12.9 nM [sample B, mean of 2 tests] and 12.9 nM [sample B, mean of 4 tests] and 5.5 nM [sample B, mean of 7 tests]. The GI50 (MDA-MB-435) was < 0.1 nM, 8.31 nM [sample A, 1 test] and 3.72 nM [sample B, mean of 3 tests], the TGI (MDA-MB-435) was 0.176 nM, 108 nM [sample A, 1 test] and 15.9 nM [sample B, mean of 2 tests] and 17.8 nM [sample B, mean of 3 tests] and the GI50 (UACC-257 melanoma) was < 0.1 nM [sample A, 1 test] and 13.8 nM [sample B, mean of 4 tests] and 14.7 nM [sample B, mean of 8 tests]. The TGI (UACC-257 melanoma) was 0.254 nM [sample A, 1 test] and 72.5 nM [sample B, 1 test] and 27.1 nM [sample B, mean of 4 tests] and 40.4 nM [sample B, mean of 8 tests], the GI50 (KM12 colon) was < 0.1 nM, 22.6 nM [sample A, 1 test] and 9.96 nM [sample B, mean of 5 tests] and 4.68 nM [sample B, mean of 7 tests] and the TGI (KM12 colon) was 130 nM [sample A, 1 test] and 3.45 µM [sample B, mean of 2 tests] and 174 nM [sample B, mean of 5 tests] and 77.4 nM [sample B, mean of 7 tests]. For the same molecule, the GI50 (DU-145 prostate) was < 0.1 nM, 26.8 nM [sample A, 1 test] and 8.72 nM [sample B, mean of 2 tests], the TGI (DU-145 prostate) was 9.33 nM [sample A, 1 test] and 503 nM [sample B, mean of 2 tests] and the GI50 (OVCAR-8 ovarian) was < 0.1 nM, 1.93 nM [sample A, 1 test] and 9.17 nM [sample B, mean of 4 tests] and 2.43 nM [sample B, mean of 7 tests]. For the same molecule, the TGI (OVCAR-8 ovarian) was 1.51 nM [sample A, 1 test] and 242 nM [sample B, mean of 2 tests] and 170 nM [sample B, mean of 4 tests] and 503 nM [sample B, mean of 7 tests], the GI50 (A549 NSCLC) was < 0.1 nM, 1.73 nM [sample A, 1 test] and 9.63 nM [sample B, mean of 3 tests] and 3.42 nM [sample B, mean of 4 tests] and the TGI (A549 NSCLC) was 11.8 nM [sample A, 1 test] and 2.92 µM [sample B, 1 test] and 2.49 µM [sample B, mean of 3 tests]. For the same molecule, the GI50 (SF-268 CNS) was < 0.1 nM, 14.2 nM [sample A, 1 test] and 22 nM [sample B, mean of 4 tests] and 7.63 nM [sample B, mean of 6 tests], the TGI (SF-268 CNS) was 103 nM, 232 nM [sample A, 1 test] and 429 nM [sample B, mean of 2 tests] and 373 nM [sample B, mean of 4 tests] and 223 nM [sample B, mean of 6 tests] and the GI50 (SN12C renal) was < 0.1 nM [sample A, 1 test] and 8.54 nM [sample B, mean of 6 tests] and 4.13 nM [sample B, mean of 7 tests]. For the same molecule, the TGI (SN12C renal) was 8.59 nM [sample A, 1 test] and > 36.6 µM [sample B, mean of 2 tests] and 260 nM [sample B, mean of 6 tests] and 415 nM [sample B, mean of 7 tests], the GI50 (MCF7 breast) was < 0.1 nM, 3.56 nM [sample A, 1 test] and 9.83 nM [sample B, mean of 4 tests] and 3.83 nM [sample B, mean of 5 tests] and the TGI (MCF7 breast) was 20.2 nM, 186 nM [sample A, 1 test] and 5.86 µM [sample B, mean of 2 tests] and 110 nM [sample B, mean of 4 tests] and 377 nM [sample B, mean of 5 tests]. For the same molecule, the GI50 (HOP-62 NSCLC) was < 0.1 nM, 2.82 nM [sample A, 1 test] and 9.47 nM [sample B, mean of 5 tests] and 4.07 nM [sample B, mean of 6 tests], the TGI (HOP-62 NSCLC) was 1.5 nM [sample A, 1 test] and 244 nM [sample B, mean of 2 tests] and 39.9 nM [sample B, mean of 5 tests] and 51.9 nM [sample B, mean of 6 tests] and the GI50 (NCI-H226 lung) was < 0.1 nM, 4.75 nM [sample A, 1 test] and 7.77 nM [sample B, mean of 2 tests] and 4.07 nM [sample B, mean of 7 tests]. The TGI (NCI-H226 lung) was < 0.1 nM [sample A, 1 test] and 22.6 nM [sample B, 1 test] and 79 nM [sample B, mean of 2 tests] and 34.7 nM [sample B, mean of 7 tests], the GI50 (HL-60(TB) leukemia) was < 0.1 nM, 4.61 nM [sample A, 1 test] and 8.96 nM [sample B, mean of 4 tests] and 3.64 nM [sample B, mean of 8 tests] and the TGI (HL-60(TB) leukemia) was < 0.1 nM, 25.2 nM [sample A, 1 test] and 136 nM [sample B, mean of 4 tests] and 34.5 nM [sample B, mean of 8 tests]. The GI50 (SK-OV-3 ovarian) was < 0.1 nM [sample A, 1 test] and 9.28 nM [sample B, mean of 6 tests] and 6.43 nM [sample B, mean of 7 tests], the TGI (SK-OV-3 ovarian) was 136 nM, 6.75 µM [sample A, 1 test] and 8.15 µM [sample B, mean of 2 tests] and 1.5 µM [sample B, mean of 6 tests] and 395 nM [sample B, mean of 7 tests] and the GI50 (NCI-H460 lung) was < 0.1 nM, 0.387 nM [sample A, 1 test] and 7.5 nM [sample B, mean of 2 tests] and 0.697 nM [sample B, mean of 5 tests]. For the same molecule, the TGI (NCI-H460 lung) was 10.3 nM, 141 nM, 1.01 µM [sample A, 1 test] and 82.3 nM, 312 nM [sample B, mean of 2 tests] and 23.8 nM [sample B, mean of 5 tests], the GI50 (MDA-MB-231 breast) was < 0.1 nM, 36.1 nM [sample A, 1 test] and < 28.2 nM [sample B, mean of 2 tests] and 5.36 nM [sample B, mean of 3 tests] and the TGI (MDA-MB-231 breast) was 2.15 nM, 157 nM [sample A, 1 test] and 105 nM [sample B, mean of 3 tests]. For the same molecule, the GI50 (HS 578T breast) was < 0.1 nM [sample A, 1 test] and 3.53 nM [sample B, mean of 3 tests], the TGI (HS 578T breast) was 0.731 nM [sample A, 1 test] and 136 nM [sample B, 1 test] and 13 nM [sample B, mean of 3 tests] and the GI50 (CCRF-CEM leukemia) was < 0.1 nM, 1.99 nM [sample A, 1 test] and 8.68 nM [sample B, mean of 4 tests] and 2.65 nM [sample B, mean of 8 tests]. For the same molecule, the TGI (CCRF-CEM leukemia) was 0.187 nM, 14.8 nM [sample A, 1 test] and 51.6 nM [sample B, mean of 4 tests] and 110 nM [sample B, mean of 8 tests], the TGI (LOX IMVI melanoma) was 17.9 nM and 432 nM and the GI50 (RXF 393 renal) was < 0.1 nM [sample A, 1 test] and 7.5 nM [sample B, mean of 4 tests] and 1.67 nM [sample B, mean of 6 tests]. The TGI (RXF 393 renal) was < 0.1 nM [sample A, 1 test] and 9.55 nM [sample B, mean of 4 tests] and 6.77 nM [sample B, mean of 6 tests], the GI50 (T-47D breast) was < 0.1 nM, 57.9 nM [sample A, 1 test] and 3 nM [sample B, mean of 3 tests] and the GI50 (SNB-75 CNS) was 1.86 nM [sample A, 1 test] and 19.4 nM [sample B, mean of 6 tests] and 1.7 nM [sample B, mean of 8 tests]. The TGI (SNB-75 CNS) was 295 nM, 52.4 nM [sample A, 1 test] and < 14.6 nM [sample B, mean of 2 tests] and 27.9 nM [sample B, mean of 6 tests] and 16.6 nM [sample B, mean of 8 tests] and the TGI (ACHN renal) was 12.6 µM [1 test] and 4.57 nM [mean of 2 tests].

Reference: PubChem BioAssay (NCI)
